{"source": "PubChem BioAssay AID624296", "about": "(National Center for Advancing Translational Sciences (NCATS), 2012)", "note": "Hit rate of the full screen: of about 350,000 compounds, about 9,900 (2.8%) were called active. The inconclusive results got no clear call from the source; some entries with a clear call stand among them for comparison. The call rests on the fitted dose curve; in most records, active means well fitted activation curve with a large enough effect; inconclusive means small, poorly fitted or top-dose-only effect; inactive means no such curve, though single readings can be large or run the other way. No potency is given beside an inconclusive call; the fits are too rough. Potency means the concentration at half of the fitted maximal effect; tags describe the fitted curve by direction and shape."}
{"test": "A quantitative high throughput screen for small molecules that induce DNA re-replication in MCF 10a normal breast cells; further: nearly all actives have a fitted effect of over 50% in size.", "settings": "MCF 10A DNA re-replication, Hoechst nuclear intensity, 48 h; series mostly up to 46.1 µM"}
{"smiles": "Cc1ccc2nc(SCC3CCCCO3)[nH]c2c1", "note": "(stereo not given)", "Potency": "inactive"}
{"smiles": "Cc1nnc(-c2ccc(N3CCOCC3)c([N+](=O)[O-])c2)o1", "Potency": "inactive"}
{"smiles": "CCOC(=O)C1=C(C(F)(F)F)Nc2ncnn2C1c1ccc(OC)c(OC)c1OC", "note": "(stereo not given)", "Potency": "inconclusive [activator, single point]"}
{"smiles": "O=C(Nc1ccc(N2CCCCC2)cc1)c1ccccn1", "Potency": "inconclusive [activator, single point]"}
{"smiles": "COc1ccc(NS(=O)(=O)c2ccc(-c3coc(C)n3)cc2)cc1", "Potency": "inactive"}
{"smiles": "O=C(NC(=S)Nc1cccc(Cl)c1Cl)C1CC1", "Potency": "inactive"}
{"smiles": "CCOC(=O)c1c(NC(=O)C2=C(C)NC(=S)NC2c2ccc(C)cc2)sc(C)c1C", "note": "(stereo not given)", "Potency": "inconclusive [activator, single point]"}
{"smiles": "Cc1cc(C(=O)COC(=O)/C=C/c2ccco2)c(C)n1C", "Potency": "inactive"}
{"smiles": "C(=N\\NC1=Nc2cccc3cccc1c23)/c1ccccn1", "Potency": "inconclusive [activator, partial curve, poor fit]"}
{"smiles": "COc1ccc(OCC(=O)NC(=S)NNC(=O)COc2ccc(Br)cc2Cl)cc1", "Potency": "inactive"}
{"smiles": "Cc1c(Cl)cccc1NC(=S)N(CCCN1CCOCC1)Cc1cccs1", "Potency": "inactive"}
{"smiles": "Cc1cccc(C)c1OCCOC(=O)c1n[nH]c2ccccc12", "Potency": "inconclusive [activator, single point]"}
{"smiles": "O=C(Nc1ccccc1)c1ncoc1-c1ccc(Cl)cc1", "Potency": "inactive"}
{"smiles": "Cc1nc(-c2cccc(S(=O)(=O)N3CC(C)CC(C)C3)c2)cs1", "note": "(stereo not given)", "Potency": "inactive"}
{"smiles": "Cc1cccc(C)c1NC(=O)CN1C(=O)COc2ccccc21", "Potency": "inactive"}
{"smiles": "COc1ccc(N2C(=O)[C@H]3CCC=C[C@H]3[C@@H]2c2ccccc2Br)cc1", "Potency": "inconclusive [activator, partial curve, poor fit]"}
{"smiles": "CNC(=S)N/N=C/c1cc(Br)cc(Br)c1O", "Potency": "active: 7.31 µM"}
{"smiles": "CCOC(=O)c1sc(NC(=O)CN2C(=O)NC3(CC(C)CC(C)(C)C3)C2=O)cc1C", "note": "(stereo not given)", "Potency": "inconclusive [activator, single point]"}
{"smiles": "CCOc1cc(/C=C(/C#N)c2ccc(F)cc2)ccc1OCc1ccc(C(=O)O)o1", "Potency": "inconclusive [activator, partial curve, poor fit]"}
{"smiles": "CCc1cc(SC#N)cc(CC)c1NC(=O)CCl", "Potency": "active: 16.4 µM"}
{"smiles": "Cc1cccc(CS(=O)(=O)c2ncc(Cl)c(C(=O)Nc3nnc(C(C)C)s3)n2)c1", "Potency": "inconclusive [activator, partial curve, poor fit]"}
{"smiles": "C/C(=N/NC(=O)c1cc(C)[nH]n1)c1ccncc1", "Potency": "inactive"}
{"smiles": "Oc1ccc(Cl)cc1CNCc1ccc(Cl)cc1", "Potency": "inconclusive [activator, partial curve, poor fit]"}
{"smiles": "NC(=O)[C@@H]1CCCN1Cc1nc(-c2ccccc2)no1", "Potency": "inconclusive [activator, single point]"}
{"smiles": "O=C(COc1ncnc2ccccc12)Nc1cc([N+](=O)[O-])ccc1F", "Potency": "inactive"}
{"smiles": "COc1ccc(C)cc1N(C(=O)c1ccc(F)cc1)c1nc2ccccc2s1", "Potency": "inactive"}
{"smiles": "CCc1cccc(C)c1NC(=O)CSc1nc(C)c(C)o1", "Potency": "inactive"}
{"smiles": "c1ccc(-n2cnnc2SCc2cn3cccnc3n2)cc1", "Potency": "inconclusive [activator, single point]"}
{"smiles": "CCCC(=O)Nc1ccc2oc(-c3ccc(OC)c(Br)c3)nc2c1", "Potency": "active: 18.4 µM"}
{"smiles": "OC(COc1ccccc1)CN(Cc1ccccc1)CC(O)COc1ccccc1", "note": "(stereo not given)", "Potency": "inconclusive [activator, single point]"}
{"smiles": "COc1cccc(NS(=O)(=O)c2ccc(S(=O)(=O)N3CCCC3)cc2)c1", "Potency": "inactive"}
{"smiles": "Cc1cc(C(=O)CSc2nc(N)cc(=O)[nH]2)ccc1F", "Potency": "active: 13 µM"}
{"smiles": "CSCC(C)N1CCC(n2nccc2NC(=O)CCCc2ccccc2)CC1", "note": "(stereo not given)", "Potency": "inconclusive [activator, full curve, poor fit]"}
{"smiles": "CCNC(=O)C(=O)NCC1CCCN1S(=O)(=O)c1cccs1", "note": "(stereo not given)", "Potency": "inactive"}
{"smiles": "O=C1CS/C(=N/N=C/c2cccs2)N1Cc1ccc(F)cc1", "Potency": "inactive"}
{"smiles": "CCN(C[C@H]1N[C@@](CC)(C(=O)OC)[C@H]2C(=O)N(Cc3ccccc3)C(=O)[C@@H]12)C(=O)COc1ccccc1", "Potency": "inactive"}
{"smiles": "CC(=O)c1sc(NC(=O)C2CCN(C(=O)c3ccccc3C)CC2)nc1-c1ccccc1", "Potency": "inactive"}
{"smiles": "COc1cccc(NC(=O)CSc2nnnn2C2CCCCC2)c1", "Potency": "inactive"}
{"smiles": "CCc1nc2ccccc2nc1N1CCN(S(=O)(=O)c2ccc(Cl)cc2)CC1", "Potency": "inconclusive [activator, single point]"}
{"smiles": "COc1cc(C(=O)NC(C)CCc2ccccc2)cc(OC)c1OC", "note": "(stereo not given)", "Potency": "inconclusive [activator, partial curve, poor fit]"}
{"smiles": "CC1CCN(C(=O)CSc2nc3ccccc3[nH]2)CC1", "Potency": "inconclusive [activator, partial curve, poor fit]"}
{"smiles": "O=C(c1cc(C2CC2)nn1-c1ccccc1)N1CCN(c2ncc(C(F)(F)F)cc2Cl)CC1", "Potency": "active: 13 µM"}
{"smiles": "CC(=O)NC1C(O)OC(CO)C(O)C1O", "note": "(stereo not given)", "Potency": "inconclusive [activator, partial curve, poor fit]"}
{"smiles": "COc1ccc(-c2cc(C(=O)NCc3cccs3)no2)cc1", "Potency": "inconclusive [activator, single point]"}
{"smiles": "c1ccc2c(c1)Cc1ccccc1O2", "Potency": "inconclusive [activator, full curve, poor fit]"}
{"smiles": "CC(C)c1cc(CNC(=O)CC2C(=O)NCCN2CC2CCCCC2)on1", "note": "(stereo not given)", "Potency": "inactive"}
{"smiles": "CN(C)S(=O)(=O)c1cccc(NC(=O)CSc2nc3ccccc3[nH]2)c1", "Potency": "inactive"}
{"smiles": "CCN=C1S/C(=C\\c2cc(Br)c(O)c(OC)c2)C(=O)N1CC", "Potency": "inconclusive [activator, single point]"}
{"smiles": "COc1ccccc1-n1cc(C(=O)N2CCCC(CO)(Cc3ccccc3C)C2)cn1", "note": "(stereo not given)", "Potency": "inconclusive [activator, single point]"}
{"smiles": "O=C(Nc1cccnc1)C1CCCN(c2ncnc3c2nc2n3CCCCC2)C1", "note": "(stereo not given)", "Potency": "inconclusive [activator, partial curve, poor fit]"}
{"smiles": "COc1ccc(CCN2CC(C#N)=C3c4cc(OC)c(OC)cc4CCN3C2)cc1OC", "Potency": "inactive"}
{"smiles": "COc1cccc2c(SCC(=O)N/N=C/c3ccc(O)cc3O)cc(C)nc12", "Potency": "active: 14.6 µM"}
{"smiles": "O=c1[nH]ncc2c3ccccc3n(Cc3cccc(Cl)c3)c12", "Potency": "inconclusive [activator, single point]"}
{"smiles": "O=C(c1c(F)cccc1F)N1CCN(c2cccc(C(F)(F)F)c2)CC1", "Potency": "inactive"}
{"smiles": "CCN(CC)S(=O)(=O)c1ccc(N/N=C(\\C)c2ccncc2)nc1", "Potency": "inconclusive [activator, partial curve, poor fit]"}
{"smiles": "CC(C)(C)N(Cc1ccccc1)C(=O)COC(=O)[C@@H]1CCCN1C(=O)c1cccs1", "Potency": "inactive"}
{"smiles": "COc1ccc(-c2sc3ccc(OC)cc3c2C#Cc2ccccn2)cc1", "Potency": "active: 18.4 µM"}
{"smiles": "COc1cc(CN2CCc3ccccc3C2)ccc1O", "Potency": "inconclusive [activator, partial curve]"}
{"smiles": "Cc1ccccc1-n1c(C)cc(/C=C2/C(=N)N3C(c4ccccc4)=CSC3=NC2=O)c1C", "Potency": "inconclusive [activator, full curve, poor fit]"}
{"smiles": "O=C(CCCN1C(=O)/C(=C/c2ccccc2Cl)SC1=S)N1CCCC1", "Potency": "inconclusive [activator, single point]"}
{"smiles": "COCCNC(=O)C(c1c[nH]c2ccccc12)N(C(=O)c1snc(C(N)=O)c1N)c1cccc(OC)c1", "note": "(stereo not given)", "Potency": "inactive"}
{"smiles": "O=C(O)c1cccc(Nc2nc(-c3ccccc3)nc3ccccc23)c1", "Potency": "inactive"}
{"smiles": "CC(C(=O)N1CCCC1)N1CCN(S(=O)(=O)c2ccc(OC(F)(F)F)cc2)CC1", "note": "(stereo not given)", "Potency": "inconclusive [activator, partial curve, poor fit]"}
{"smiles": "COc1cc(C(=O)NC(=S)N(CCc2ccccc2)CCc2ccccc2)cc(OC)c1OC", "Potency": "inconclusive [activator, partial curve, poor fit]"}
{"smiles": "Cc1cc(Br)ccc1NC(=O)CN(C)C(=O)C1CCN(c2ncnc3sc(C)c(C)c23)CC1", "Potency": "inconclusive [activator, single point]"}
{"smiles": "CCn1c(Cc2cccc3ccccc23)nnc1SCC(=O)Nc1nccs1", "Potency": "inactive"}
{"smiles": "Cc1ccc(S(=O)(=O)N/N=C\\c2ccc3c(c2)OCO3)c(C)c1", "Potency": "inactive"}
{"smiles": "Cc1ccnc(SCC(=O)n2c3c(c4ccccc42)CC(C)CC3)n1", "note": "(stereo not given)", "Potency": "inconclusive [activator, partial curve, poor fit]"}
{"smiles": "CN(CCOc1ccc(Br)cc1)C(=O)CNC(=O)c1ccc2ccccc2c1", "Potency": "inconclusive [activator, single point]"}
{"smiles": "O=C(CNS(=O)(=O)c1ccc(Br)s1)NC1CCCc2ccccc21", "note": "(stereo not given)", "Potency": "inconclusive [activator, single point]"}
{"smiles": "CCOC(=O)C(NCCc1ccccc1F)(NC(C)=O)C(F)(F)F", "note": "(stereo not given)", "Potency": "inactive"}
{"smiles": "CCn1c(SCC(=O)c2c(N)n(C3CC3)c(=O)[nH]c2=O)nc2cc(S(N)(=O)=O)ccc21", "Potency": "inactive"}
{"smiles": "CCN1CCN(CCOc2cccc(Oc3ccccc3)c2)CC1", "Potency": "inconclusive [activator, partial curve, poor fit]"}
{"smiles": "CCOc1ccc(OCCNC(=O)c2oc3ccccc3c2COC)cc1", "Potency": "inconclusive [activator, partial curve, poor fit]"}
{"smiles": "Cc1ccc(C)c(-c2csc(NC(=O)C3=COCCO3)n2)c1", "Potency": "inconclusive [activator, single point]"}
